Data reported in the supplement of paper PMC9151546.
Many values rest on one well or one pass, so single values are uncertain.

Experiments:
CHO-K1 [1] = assay: micronucleus frequency (% of nucleated events); higher = more micronuclei (genotoxic)
CHO-K1 [2] = assay: hypodiploid nuclei frequency (% of nucleated events); higher = more hypodiploid events (aneugenic)
Experimental: (§1)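 Flow-cytometric in vitro micronucleus assay (Litron MicroFlow) in CHO-K1 cells in 96-well plates, 19 concentrations (4.5-200 µM, n=1 per concentration). Without S9, cells were exposed for 24 h and sampled at 48 h. With Aroclor 1254-induced rat liver S9, cells were exposed for 3-4 h and sampled at 27-28 h. Read-outs are %MN and %hypodiploid nuclei relative to nucleated events, and relative survival as the nuclei-to-bead ratio versus the 1% DMSO vehicle control (x100).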

CHO-K1 [3] = assay: relative survival (nuclei to bead ratio vs DMSO control) (% of vehicle control); higher = more surviving cells
Experimental: as §1
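Wherever hypodiploid nuclei frequency (% of nucleated events) is given: hypodiploid nuclei gated on a flow cytometer with 488 nm excitation after SYTOX Green staining, cultures at 37 °C, positive controls vinblastine without S9 and cyclophosphamide with S9.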
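Wherever micronucleus frequency (% of nucleated events) is given: cells lysed with nuclei stained by SYTOX Green, then micronucleus-gated events counted against nucleated events by flow cytometry with 488 nm excitation.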
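Wherever relative survival (nuclei to bead ratio vs DMSO control) is given: Lysed-cell nuclei stained with SYTOX Green and counted against counting beads by flow cytometry at 488 nm excitation, with vinblastine (no S9) and cyclophosphamide (plus S9) as positive controls.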

Cc1cccc([N+](=O)[O-])c1C [1,2-Dimethyl-3-nitrobenzene]
Details | hypodiploid nuclei frequency, CHO-K1 [2] [%] | micronucleus frequency, CHO-K1 [1] [%] | relative survival, CHO-K1 [3]
concentration: 4.5 (µM), S9 metabolic activation: with S9, exposure time: 3-4 hours | 0.28 | 1.44 | 161
concentration: 4.5 (µM), S9 metabolic activation: without S9, exposure time: 24 hours | 0.56 | 1.92 | 148
concentration: 5.63 (µM), S9 metabolic activation: with S9, exposure time: 3-4 hours | 0.18 | 1.54 | 123
concentration: 5.63 (µM), S9 metabolic activation: without S9, exposure time: 24 hours | 0.64 | 1.36 | 118
concentration: 7.04 (µM), S9 metabolic activation: with S9, exposure time: 3-4 hours | 0.34 | 1.96 | 130
concentration: 7.04 (µM), S9 metabolic activation: without S9, exposure time: 24 hours | 0.6 | 1.68 | 132
concentration: 8.8 (µM), S9 metabolic activation: with S9, exposure time: 3-4 hours | 0.3 | 1.72 | 132
concentration: 8.8 (µM), S9 metabolic activation: without S9, exposure time: 24 hours | 0.72 | 2.44 | 148
concentration: 11 (µM), S9 metabolic activation: with S9, exposure time: 3-4 hours | 0.38 | 2.08 | 138
concentration: 11 (µM), S9 metabolic activation: without S9, exposure time: 24 hours | 0.68 | 1.94 | 116
concentration: 13.7 (µM), S9 metabolic activation: with S9, exposure time: 3-4 hours | 0.46 | 2.52 | 125
concentration: 13.7 (µM), S9 metabolic activation: without S9, exposure time: 24 hours | 0.52 | 1.36 | 140
concentration: 17.2 (µM), S9 metabolic activation: with S9, exposure time: 3-4 hours | 0.28 | 1.48 | 128
concentration: 17.2 (µM), S9 metabolic activation: without S9, exposure time: 24 hours | 0.52 | 1.66 | 134
concentration: 21.5 (µM), S9 metabolic activation: with S9, exposure time: 3-4 hours | 0.18 | 1.14 | 114
concentration: 21.5 (µM), S9 metabolic activation: without S9, exposure time: 24 hours | 0.72 | 1.88 | 122
concentration: 26.8 (µM), S9 metabolic activation: with S9, exposure time: 3-4 hours | 0.12 | 1.38 | 135
concentration: 26.8 (µM), S9 metabolic activation: without S9, exposure time: 24 hours | 0.76 | 2.18 | 119
concentration: 33.6 (µM), S9 metabolic activation: with S9, exposure time: 3-4 hours | 0.32 | 1.5 | 139
concentration: 33.6 (µM), S9 metabolic activation: without S9, exposure time: 24 hours | 0.92 | 2.24 | 166
concentration: 41.9 (µM), S9 metabolic activation: with S9, exposure time: 3-4 hours | 0.34 | 1.58 | 109
concentration: 41.9 (µM), S9 metabolic activation: without S9, exposure time: 24 hours | 0.94 | 1.88 | 151
concentration: 52.4 (µM), S9 metabolic activation: with S9, exposure time: 3-4 hours | 0.28 | 1.72 | 114
concentration: 52.4 (µM), S9 metabolic activation: without S9, exposure time: 24 hours | 1.38 | 2.98 | 121
concentration: 65.5 (µM), S9 metabolic activation: with S9, exposure time: 3-4 hours | 0.24 | 0.78 | 83.4
concentration: 65.5 (µM), S9 metabolic activation: without S9, exposure time: 24 hours | 1 | 2.36 | 135
concentration: 81.9 (µM), S9 metabolic activation: with S9, exposure time: 3-4 hours | 0.22 | 1.32 | 94.2
concentration: 81.9 (µM), S9 metabolic activation: without S9, exposure time: 24 hours | 1.5 | 3.22 | 149
concentration: 102 (µM), S9 metabolic activation: with S9, exposure time: 3-4 hours | 0.14 | 0.86 | 95.4
concentration: 102 (µM), S9 metabolic activation: without S9, exposure time: 24 hours | 1.16 | 2.9 | 146
concentration: 128 (µM), S9 metabolic activation: with S9, exposure time: 3-4 hours | 0.16 | 1.12 | 95.6
concentration: 128 (µM), S9 metabolic activation: without S9, exposure time: 24 hours | 1.1 | 2.74 | 121
concentration: 160 (µM), S9 metabolic activation: with S9, exposure time: 3-4 hours | 0.18 | 1.08 | 103
concentration: 160 (µM), S9 metabolic activation: without S9, exposure time: 24 hours | 1.28 | 3.96 | 120
concentration: 200 (µM), S9 metabolic activation: with S9, exposure time: 3-4 hours | 0.24 | 1.18 | 110
concentration: 200 (µM), S9 metabolic activation: without S9, exposure time: 24 hours | 1.8 | 3.38 | 109

Clc1cccc(Cl)c1 [1,3-Dichlorobenzene]
Details | hypodiploid nuclei frequency, CHO-K1 [2] [%] | micronucleus frequency, CHO-K1 [1] [%] | relative survival, CHO-K1 [3]
concentration: 4.5 (µM), S9 metabolic activation: with S9, exposure time: 3-4 hours | 0.26 | 1.08 | 99.5
concentration: 4.5 (µM), S9 metabolic activation: without S9, exposure time: 24 hours | 0.42 | 1.08 | 98.6
concentration: 5.63 (µM), S9 metabolic activation: with S9, exposure time: 3-4 hours | 0.2 | 1.32 | 84.2
concentration: 5.63 (µM), S9 metabolic activation: without S9, exposure time: 24 hours | 0.48 | 0.88 | 115
concentration: 7.04 (µM), S9 metabolic activation: with S9, exposure time: 3-4 hours | 0.18 | 1.04 | 99.3
concentration: 7.04 (µM), S9 metabolic activation: without S9, exposure time: 24 hours | 0.66 | 1.22 | 92.1
concentration: 8.8 (µM), S9 metabolic activation: with S9, exposure time: 3-4 hours | 0.38 | 0.92 | 95.7
concentration: 8.8 (µM), S9 metabolic activation: without S9, exposure time: 24 hours | 0.66 | 1.1 | 80.9
concentration: 11 (µM), S9 metabolic activation: with S9, exposure time: 3-4 hours | 0.28 | 1.16 | 107
concentration: 11 (µM), S9 metabolic activation: without S9, exposure time: 24 hours | 0.58 | 1.26 | 93.6
concentration: 13.7 (µM), S9 metabolic activation: with S9, exposure time: 3-4 hours | 0.28 | 1.14 | 94.4
concentration: 13.7 (µM), S9 metabolic activation: without S9, exposure time: 24 hours | 0.64 | 1.32 | 85.6
concentration: 17.2 (µM), S9 metabolic activation: with S9, exposure time: 3-4 hours | 0.16 | 0.96 | 95.5
concentration: 17.2 (µM), S9 metabolic activation: without S9, exposure time: 24 hours | 0.54 | 1.16 | 97.8
concentration: 21.5 (µM), S9 metabolic activation: with S9, exposure time: 3-4 hours | 0.44 | 1.58 | 110
concentration: 21.5 (µM), S9 metabolic activation: without S9, exposure time: 24 hours | 0.4 | 1.56 | 123
concentration: 26.8 (µM), S9 metabolic activation: with S9, exposure time: 3-4 hours | 0.16 | 1.1 | 139
concentration: 26.8 (µM), S9 metabolic activation: without S9, exposure time: 24 hours | 0.64 | 1.76 | 74.4
concentration: 33.6 (µM), S9 metabolic activation: with S9, exposure time: 3-4 hours | 0.32 | 1.32 | 134
concentration: 33.6 (µM), S9 metabolic activation: without S9, exposure time: 24 hours | 0.68 | 1.38 | 99
concentration: 41.9 (µM), S9 metabolic activation: with S9, exposure time: 3-4 hours | 0.26 | 0.9 | 111
concentration: 41.9 (µM), S9 metabolic activation: without S9, exposure time: 24 hours | 0.82 | 1.16 | 88.1
concentration: 52.4 (µM), S9 metabolic activation: with S9, exposure time: 3-4 hours | 0.34 | 1.1 | 87.5
concentration: 52.4 (µM), S9 metabolic activation: without S9, exposure time: 24 hours | 0.46 | 1.4 | 86.5
concentration: 65.5 (µM), S9 metabolic activation: with S9, exposure time: 3-4 hours | 0.38 | 0.66 | 81
concentration: 65.5 (µM), S9 metabolic activation: without S9, exposure time: 24 hours | 0.56 | 1.1 | 79.1
concentration: 81.9 (µM), S9 metabolic activation: with S9, exposure time: 3-4 hours | 0.28 | 1.36 | 99.5
concentration: 81.9 (µM), S9 metabolic activation: without S9, exposure time: 24 hours | 0.74 | 1.2 | 88.1
concentration: 102 (µM), S9 metabolic activation: with S9, exposure time: 3-4 hours | 0.32 | 1.46 | 95.2
concentration: 102 (µM), S9 metabolic activation: without S9, exposure time: 24 hours | 0.62 | 1.36 | 92.1
concentration: 128 (µM), S9 metabolic activation: with S9, exposure time: 3-4 hours | 0.24 | 1.34 | 103
concentration: 128 (µM), S9 metabolic activation: without S9, exposure time: 24 hours | 0.82 | 1.94 | 79.9
concentration: 160 (µM), S9 metabolic activation: with S9, exposure time: 3-4 hours | 0.26 | 1.74 | 100
concentration: 160 (µM), S9 metabolic activation: without S9, exposure time: 24 hours | 0.9 | 1.86 | 96.2
concentration: 200 (µM), S9 metabolic activation: with S9, exposure time: 3-4 hours | 0.22 | 2.08 | 82.4
concentration: 200 (µM), S9 metabolic activation: without S9, exposure time: 24 hours | 1.1 | 1.76 | 100
